The chains are these.
B1: PhoQ; a variant is named by its letters at X, in order, P23837 (parent)
chain: MKKLLRLFFPLSLRVRFLLATAAVVLVLSLAYGMVALIGYSVSFDKTTFRLLRGESNLFYTLAKWENNKLHVELPENIDKQSPTMTLIYDENGQLLWAQRDVPWLMKMIQPDWLKSNGFHEIEADVNDTSLLLSGDHSIQQQLQEVREDDDDAEMTHSVAVNVYPATSRMPKLTIVVVDTIPVELKSSYMVWSWFIYVLSANLLLVIPLLWVAAWWSLRPIEALAKEVRELEEHNRELLNPATTRELTSLVRNLNRLLKSERERYDKYRTTLTDLTHSLKTPLXXLQXXLRSLRSEKMSVSDAEPVMLEQISRISQQIGYYLHRASMRGGTLLSRELHPVAPLLDNLTSALNKVYQRKGVNISLDISPEISFVGEQNDFVEVMGNVLDNACKYCLEFVEISARQTDEHLYIVVEDDGPGIPLSKREVIFDRGQRVDTLRPGQGVGLAVAREITEQYEGKIVAGESMLGGARMEVIFGRQHSAPKDE

This is one part of the list.

In this experiment the parent is B1. In words: enrichment ratio after two sorts for PhoP signalling (ratio (wild type AVST 3.29)); higher = more functional. To be noted: with PhoP (E. coli).
Consider KRLK, for which the enrichment ratio is ≤ 0.25.

Consider YLCF, for which the enrichment ratio is ≤ 0.25.

Consider HEAY, for which the enrichment ratio was ≤ 0.25.

In the case of FYYS, the enrichment ratio was ≤ 0.25.

For the variant AHTI, the enrichment ratio is ≤ 0.25.

For the variant NWNN, the enrichment ratio is ≤ 0.25.

In the case of TSST, the enrichment ratio is 15.

FNHP: the enrichment ratio was ≤ 0.25.

Take QAGF: the enrichment ratio was determined as 4.8.

With WCKF, the enrichment ratio was ≤ 0.25.

Regarding GQML, the enrichment ratio came out at 7.95.

For QHAR, the enrichment ratio was ≤ 0.25.

Consider SAWE, for which the enrichment ratio is ≤ 0.25.

On to LISD, for which the enrichment ratio was ≤ 0.25.

In the case of DYEV, the enrichment ratio is ≤ 0.25.

In the case of LYPE, the enrichment ratio is ≤ 0.25.

Turning to HYSS, the enrichment ratio is ≤ 0.25.

On to IEHE, for which the enrichment ratio was ≤ 0.25.

VCNY: the enrichment ratio is ≤ 0.25.

On to HMFI, for which the enrichment ratio is ≤ 0.25.

On to SYLM, for which the enrichment ratio is ≤ 0.25.

In the case of DRWT, the enrichment ratio was ≤ 0.25.

RPKG: the enrichment ratio is ≤ 0.25.

As for ECLY, the enrichment ratio is ≤ 0.25.

HWNH: the enrichment ratio is ≤ 0.25.

For CAYL, the enrichment ratio is ≤ 0.25.

Take ELEQ: the enrichment ratio was ≤ 0.25.

With FEHL, the enrichment ratio turned out to be 0.313.

For the variant HMSD, the enrichment ratio was ≤ 0.25.

Regarding GMYY, the enrichment ratio is ≤ 0.25.

In the case of RREI, the enrichment ratio was ≤ 0.25.

As to WGLM, the enrichment ratio worked out at 6.8.

As for ESIS, the enrichment ratio was ≤ 0.25.

Turning to TAPN, the enrichment ratio is ≤ 0.25.

ECPS: the enrichment ratio is ≤ 0.25.

Consider QGVM, for which the enrichment ratio was ≤ 0.25.

As for HVRM, the enrichment ratio was ≤ 0.25.

In the case of HKMM, the enrichment ratio is ≤ 0.25.

In the case of ITPK, the enrichment ratio is ≤ 0.25.

Take FPAY: the enrichment ratio is ≤ 0.25.

With GWSN, the enrichment ratio is ≤ 0.25.

As to SQMK, the enrichment ratio was ≤ 0.25.

Turning to GHPH, the enrichment ratio is ≤ 0.25.

With PCVD, the enrichment ratio was ≤ 0.25.

As for KRAE, the enrichment ratio is ≤ 0.25.

For RLFS, the enrichment ratio was ≤ 0.25.

In the case of NQVR, the enrichment ratio was ≤ 0.25.

As for NPCP, the enrichment ratio was ≤ 0.25.

Turning to RERK, the enrichment ratio was ≤ 0.25.

On to GAER, for which the enrichment ratio was ≤ 0.25.

For the variant IMQQ, the enrichment ratio was ≤ 0.25.

As to IYQQ, the enrichment ratio is ≤ 0.25.

Consider SLGA, for which the enrichment ratio is ≤ 0.25.

In the case of AYCQ, the enrichment ratio was ≤ 0.25.

On to QMNR, for which the enrichment ratio is ≤ 0.25.

For the variant QLDS, the enrichment ratio is ≤ 0.25.

Turning to WTPN, the enrichment ratio is ≤ 0.25.

For KSHR, the enrichment ratio is ≤ 0.25.

For the variant WNVK, the enrichment ratio is ≤ 0.25.

For the variant TSQR, the enrichment ratio is ≤ 0.25.

For RRLL, the enrichment ratio was ≤ 0.25.

Turning to GWRQ, the enrichment ratio is ≤ 0.25.

PFNV: the enrichment ratio is ≤ 0.25.

As for PMWF, the enrichment ratio was ≤ 0.25.

For the variant VGFH, the enrichment ratio is ≤ 0.25.

For the variant TVEV, the enrichment ratio is ≤ 0.25.

For the variant SSSF, the enrichment ratio turned out to be 10.

For the variant SPNP, the enrichment ratio is ≤ 0.25.

For the variant KLKH, the enrichment ratio was ≤ 0.25.

KAMG: the enrichment ratio is ≤ 0.25.

As for EADS, the enrichment ratio is ≤ 0.25.

On to PQTK, for which the enrichment ratio was ≤ 0.25.

Take SFCT: the enrichment ratio is ≤ 0.25.

For the variant LLDI, the enrichment ratio is ≤ 0.25.

MTSM: the enrichment ratio worked out at 5.44.

In the case of KFDF, the enrichment ratio is ≤ 0.25.

For the variant HHNN, the enrichment ratio was ≤ 0.25.

With TNKD, the enrichment ratio was ≤ 0.25.

For the variant ARDY, the enrichment ratio was ≤ 0.25.

For the variant HHHK, the enrichment ratio was ≤ 0.25.

KQVM: the enrichment ratio was ≤ 0.25.

For ERYD, the enrichment ratio is ≤ 0.25.

Consider PKKE, for which the enrichment ratio was ≤ 0.25.

On to VHDT, for which the enrichment ratio is ≤ 0.25.

Take TDHQ: the enrichment ratio is ≤ 0.25.

For the variant NSWI, the enrichment ratio came out at 0.708.

On to RECQ, for which the enrichment ratio was ≤ 0.25.

Regarding GCNY, the enrichment ratio was ≤ 0.25.

On to PYEW, for which the enrichment ratio is ≤ 0.25.

For the variant TVRS, the enrichment ratio is ≤ 0.25.

For WTYT, the enrichment ratio is ≤ 0.25.

Turning to PYDV, the enrichment ratio is ≤ 0.25.

Regarding VATN, the enrichment ratio was ≤ 0.25.

Regarding INQN, the enrichment ratio was ≤ 0.25.

For the variant NQWG, the enrichment ratio is ≤ 0.25.

As to IRMS, the enrichment ratio is ≤ 0.25.

SEPP: the enrichment ratio is ≤ 0.25.

For the variant IHCA, the enrichment ratio was ≤ 0.25.

With YDKW, the enrichment ratio is ≤ 0.25.

Take AWDT: the enrichment ratio is ≤ 0.25.

GRES: the enrichment ratio was ≤ 0.25.

With WRNQ, the enrichment ratio was ≤ 0.25.

With MVTY, the enrichment ratio was ≤ 0.25.

As to LYDA, the enrichment ratio is ≤ 0.25.

Consider WLMF, for which the enrichment ratio is ≤ 0.25.

Regarding LIYN, the enrichment ratio stood at 1.32.

Consider FVQF, for which the enrichment ratio is ≤ 0.25.

For IKEC, the enrichment ratio is ≤ 0.25.

With KGEG, the enrichment ratio was ≤ 0.25.

As for FKHN, the enrichment ratio was ≤ 0.25.

As to SCPE, the enrichment ratio is ≤ 0.25.

As to GGTV, the enrichment ratio worked out at 8.45.

Take CISL: the enrichment ratio was ≤ 0.25.

Turning to WSED, the enrichment ratio was ≤ 0.25.

Consider EPTN, for which the enrichment ratio was ≤ 0.25.

Consider YRYY, for which the enrichment ratio is ≤ 0.25.

In the case of MKYK, the enrichment ratio is ≤ 0.25.

With FNHG, the enrichment ratio is ≤ 0.25.

For FMLR, the enrichment ratio is ≤ 0.25.

Take VLHY: the enrichment ratio is ≤ 0.25.

For the variant APPW, the enrichment ratio was ≤ 0.25.

Consider DSVV, for which the enrichment ratio was ≤ 0.25.

Regarding TKNT, the enrichment ratio amounted to 8.4.

Regarding IWGY, the enrichment ratio was ≤ 0.25.

Consider SGNT, for which the enrichment ratio is ≤ 0.25.

In the case of QSST, the enrichment ratio turned out to be 6.68.

In the case of LSTY, the enrichment ratio is ≤ 0.25.

In the case of LHDF, the enrichment ratio is ≤ 0.25.

Turning to DVVM, the enrichment ratio was ≤ 0.25.

Consider SCGT, for which the enrichment ratio stood at 6.01.

On to DRVP, for which the enrichment ratio is ≤ 0.25.

As to VGLH, the enrichment ratio was 1.9.

IKIT: the enrichment ratio was ≤ 0.25.

In the case of VPVE, the enrichment ratio was ≤ 0.25.

Turning to MENC, the enrichment ratio is ≤ 0.25.

Take VWLK: the enrichment ratio is ≤ 0.25.

GWQG: the enrichment ratio was ≤ 0.25.

Take IRGR: the enrichment ratio is ≤ 0.25.

Consider ITVC, for which the enrichment ratio is ≤ 0.25.

MNVS: the enrichment ratio was ≤ 0.25.

QIDI: the enrichment ratio is ≤ 0.25.

In the case of NIFN, the enrichment ratio was ≤ 0.25.

Take KLNS: the enrichment ratio was ≤ 0.25.

As for MQWY, the enrichment ratio is ≤ 0.25.

On to FDNF, for which the enrichment ratio is ≤ 0.25.

Take NTFH: the enrichment ratio is ≤ 0.25.

As to AGGW, the enrichment ratio came out at 0.253.

As for TESN, the enrichment ratio was 20.2.

In the case of NYMG, the enrichment ratio is ≤ 0.25.

As for SRMA, the enrichment ratio is ≤ 0.25.

Turning to LPDI, the enrichment ratio was ≤ 0.25.

For the variant GGSL, the enrichment ratio was found to be 3.4.

Consider LEIC, for which the enrichment ratio is ≤ 0.25.
